Article PMC12040169 (PLOS Biology, 2025)
The list shows a part of the results.

Tested on: T1, C. trachomatis L2/434/Bu expressing GFP (CTL2-GFP)
T1 construct: L2/434/Bu GFP intracellular growth in HeLa cells
Design: species or system HeLa; C. trachomatis total inclusion area by high-content imaging, normalised to DMSO
Settings: total inclusion area; 28.5 h, 10 µM; inhibitor
Method in brief: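 Imaging read-out: GFP inclusions and Hoechst nuclei captured by high-content imaging after fixation. Inclusion area/number = chlamydial growth; nuclei count = host cell viability. MIC calculated per earlier method.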

Row | Compound | % of control remaining
1 | Cc1ccc(-c2nnc3s/c(=C\c4ccc([N+](=O)[O-])cc4)c(=O)n23)cc1 [CBK264882] | 100.345
2 | O=C(CCCOc1ccccc1)Nc1cccc(N2CCNCC2)c1 [CBK028290T] | 98.7993
3 | Cc1cc(NC(=O)C2CCN(c3ncccc3C#N)CC2)no1 [CBK305689] | 60.7315
4 | CS(=O)(=O)N(Cc1ccc(Cl)cc1)c1ccc(C(=O)Nc2ccccc2C(F)(F)F)cc1 [CBK263988] | 116.679
5 | CCOc1ccc(OCC)c2c1n(C)c(SC)[n+]2C [CBK005720G] | 2.855
6 | Cc1nc(C)c(-c2cnc(NS(=O)(=O)c3ccc(Cl)cc3)nc2)s1 [CBK005935] | 104.98
7 | Cc1cc(C(=O)NC2CCCc3c2cnn3-c2ccc(F)cc2)on1 (stereo not shown) [CBK282310] | 64.3787
8 | CN1C(=O)COc2ccccc2C/C=C/C[C@@H]2[C@H]1CCCN2S(=O)(=O)c1cccnc1 [CBK292067] | 104.613
9 | Cc1ccc(NC(=O)OCC(F)(F)C(F)F)cc1Cl [CBK026548] | 33.1989
10 | Cc1cc(C(=O)Nc2c(C)noc2C)n[nH]1 [CBK200395] | 95.0966
11 | COC(=O)c1sc2[nH]c(CN(C)Cc3ccco3)nc(=O)c2c1C [CBK306047] | 39.5552
12 | Cc1ccc(S(=O)(=O)N2C[C@H]3C[C@H](NC(=O)C(C)C)[C@H]3C2)cc1 [CBK285317] | 90.1447
13 | O=C(O)c1cc(S(=O)(=O)N2CCCCC2)c(Cl)cc1N1CCCCC1 [CBK263408] | 89.0288
14 | Cc1c(C(=O)Nc2cccc(-c3nc4ccccc4s3)c2)sc2nc[nH]c(=O)c12 [CBK285825] | 87.1219
15 | CN(C)CCN(C)c1nc(-c2ccc(C(C)(C)C)cc2)cn2ccnc12 [CBK066477] | 108.705
16 | CCC1CCCCN1C(=O)c1ccc(C)s1 (stereo not shown) [CBK084526] | 101.489
17 | Cc1ccc2nsnc2c1NC(=O)COc1ccccc1[N+](=O)[O-] [CBK263779] | 96.8
18 | COCC1CCCN1C(=O)c1cnn2c(C)c(Cc3ccc(OC)cc3)c(C)nc12 (stereo not shown) [CBK162190] | 93.8778
19 | N#Cc1ccsc1NC(=O)CSc1nc[nH]n1 [CBK267221] | 99.5107
20 | CC(NC(=O)c1nn(-c2ccc(F)cc2)c2c1CCCC2)c1ccc2c(c1)OCCO2 (stereo not shown) [CBK296682] | 75.3788
21 | CCC(=O)NC(N(Cc1ccccc1)Cc1ccccc1)C(Cl)(Cl)Cl (stereo not shown) [CBK261022] | 78.5325
22 | O=C(O)CCNS(=O)(=O)c1ccc(I)cc1 [CBK268968] | 96.2583
23 | COc1ccccc1-c1ccc(CC2(C(=O)NCC3CCCCC3)CCOCC2)cc1 [CBK286519] | 82.2324
24 | Cc1cc(-c2cnoc2C2CCCN(C(=O)c3cccs3)C2)on1 (stereo not shown) [CBK284480] | 54.7233
25 | Cn1cc(CCNC(=O)NC2CCN(c3ncccn3)CC2)cn1 [CBK305612] | 41.8012
26 | N#CCCn1cc(C(=O)N2CCCCC2)c(-c2cc3ccccc3o2)n1 [CBK306206] | 55.4227

Row | Compound | % of control remaining
27 | Cc1ccc(-n2c3c(cc(C(=O)NCCCN4CCOCC4)c2=O)C(=O)CCC3)cc1 [CBK266094] | 131.421
28 | COc1cc(NC(=O)CCN2CCN(C)CC2)cc(OC)c1 [CBK264193] | 113.167
29 | Cc1cc(CNC(=O)N(C)C2CCN(C)C2)no1 (stereo not shown) [CBK155992] | 94.5684
30 | COc1ccc([C@@]23CC[C@@H](NC(=O)Nc4cccc(Cl)c4)C[C@@H]2CN(C)C3)cc1OC [CBK081375T] | 84.9962
31 | CCc1nnc(NC(=O)c2cccc(F)c2)s1 [CBK273362] | 85.5274
32 | Nc1nc(N)nc(-c2ccc(-c3nc(N)nc(N)n3)cc2)n1 [CBK261494] | 91.1683
33 | Cc1sc2ncnc(NCCOCCO)c2c1C [CBK265907] | 124.249
34 | O=S(=O)(c1ccc(F)cc1)N1CCCC1c1cccc(Cc2ccc(F)cc2)n1 (stereo not shown) [CBK286249] | 85.7894
35 | O=[N+]([O-])c1c(N2CCN(CCO)CC2)ccc2nonc12 [CBK264397] | 103.169
36 | O=C(CCc1ccc(O)c(O)c1)NNC(=S)Nc1ccccc1C(F)(F)F [CBK267104] | 123.277
37 | CC(=O)c1ccc(-c2cnc(N)c(N3CCN(C)CC3)n2)s1 [CBK063432] | 129.945
38 | Oc1cccnc1CCc1ccccc1 [CBK026334C] | 46.9376
39 | CCC(C)(C)c1ccc(S(=O)(=O)Nc2ccc3ncsc3c2)cc1 [CBK043490] | 70.4758
40 | Cc1ccc(S(=O)(=O)N(CC(=O)Nc2ccc3c(c2)OCCO3)Cc2ccccc2F)cc1 [CBK265157] | 81.3208
41 | Cc1cccc(CNCC2CCN(C(=O)OC(C)(C)C)CC2)n1 [CBK056713] | 72.4721
42 | Cn1c(Cc2nn(C)c(=O)c3ccccc23)nnc1SCC(=O)C(C)(C)C [CBK010985] | 34.3076
43 | Cc1ccc(OCC(=O)Nc2sc3c(c2C(N)=O)CCCCC3)c([N+](=O)[O-])c1 [CBK268148] | 116.987
44 | CC(C)N(C)C(=O)Cc1csc(N)n1 [CBK014608] | 36.0152
45 | C=C(C)CN1CCN(C(=O)C2Cc3cc(Cl)ccc3O2)CC1 (stereo not shown) [CBK282639] | 128.935
46 | Cn1c(=O)c2c(ncn2Cc2ccc(C#N)cc2)n(C)c1=O [CBK134217] | 78.7545
47 | COc1ccccc1-c1nc2ccccn2c1CO [CBK173210] | 42.4275
48 | O=[N+]([O-])c1ccc(O)c(C(C#Cc2ccccc2)N2CCOCC2)c1 (stereo not shown) [CBK262741] | 101.431
49 | O=S(=O)(Nc1cccc(Cl)c1)c1ccc(OC(F)(F)F)cc1 [CBK044769] | 66.9498
50 | COCCNC(=O)c1sc2ncn(CC(=O)Nc3ccccc3OC)c(=O)c2c1C [CBK071846] | 81.2387
51 | Cn1c(CSCc2ccccc2)nnc1SCC(=O)c1ccc(Br)cc1 [CBK266565] | 114.477
52 | Cc1cn2nc(N3CCN(S(=O)(=O)c4ccccc4[N+](=O)[O-])CC3)sc2n1 [CBK298288] | 80.1563
